# Some of the results follow.
# T1: UNK ZnF1-3 (human, UniProt Q9C0B0 31-174)
# T1 sequence: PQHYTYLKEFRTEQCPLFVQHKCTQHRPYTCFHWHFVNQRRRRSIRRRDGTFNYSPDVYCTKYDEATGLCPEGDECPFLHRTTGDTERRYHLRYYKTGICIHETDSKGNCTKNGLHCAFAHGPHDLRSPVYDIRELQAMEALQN
# B1: chr11:77336104:77336105:-_ENSG00000074201_ENST00000525064|hu_mus|hu_hu_hu_mus_False|8_98 (ssRNA)
# RNA: GGGAGUUCUACAGUCCGACGAUCCUCACACAUUGCUGUGAACAUUGCCUCCAAUGCUGACUUAUCACUGGGCACAAAUCGAAAUUCAGAAAUGGGUUCAACAUCAUCAUUGUCUUCCUCAUCUUCAUCAUCAGCAAGUUCUUUCAACAGAGGAUUGAGCAUCA
# B2: chr3:95999270:95999271:+_ENSMUSG00000038486_ENSMUST00000035371|mus_hu|FALSE|FALSE (ssRNA)
# RNA: GGGAGUUCUACAGUCCGACGAUCCCCUCCCAGGGGUGCGAGGAAGAGGGCUACGUCCAGCAUGUGGGGAGUGAGGGACAAGGGCACAGGGCACACACUCAUACACUGGGCACUGGAGAAGGCAGUCUUUUGAGCACAGACACCCAACAGAGGAUUGAGCAUCA
# B3: chr4:33332862:33332863:-_ENSMUSG00000040128_ENSMUST00000049357|mus_mus|FALSE|FALSE (ssRNA)
# RNA: GGGAGUUCUACAGUCCGACGAUCUAUAUACAAAACACCACCACAGCUGCAGGGCAAAAUACAUACUUUCAUAACAAAACUAUAAUGUCCUCUCAAGUAUGAACAAUGUACACAUAAUACAUGGUAUACAGUAUUUACAAAAUACAACAGAGGAUUGAGCAUCA
# B4: chr12:48459454:48459455:-_ENSG00000079387_ENST00000551330|hu_hu|motif|central (ssRNA)
# RNA: GGGAGUUCUACAGUCCGACGAUCUGCCUUCUGUUCUUCAAUCUGGCGCAAUCUUUCUCGUGCUCGAGAAUCAUAAACACGGGUUAAUUCUUUGAUCCACAGCUCUGCCUGGAAGAAAGUAGAACUGGGAGUUGGAGUCUGGGACAACAGAGGAUUGAGCAUCA
# B5: chr2:104430758:104430759:+_ENSMUSG00000027176_ENSMUST00000028599|mus_mus|FALSE|FALSE (ssRNA)
# RNA: GGGAGUUCUACAGUCCGACGAUCGGGACUACAACGUACGCACCAGCCGGCAAAGGGAAGCUAGAAAAGGAAAAUUAAACUAAAGGCAAACCCCACCAAAACCAGGAACACUACCCCUGUCCCUCAGAGCCAAAGCCGCCGCCACAACAGAGGAUUGAGCAUCA
# B6: 75265068_75276136_4124_CDS_ENSG00000166348_ENST00000408019|human|control|control (ssRNA)
# RNA: GGGAGUUCUACAGUCCGACGAUCAGAAGUACGCACUGUUCUGGCUUCAUGGAGACCAUGCUCCAUUUCUGCUGUUGAAGUCUUUGAGAGACCAGGAUCAUGGGCUGAGUGCAACCUCCUCCCCAUGCCAUCUGCAGAGCCUGUCAACAGAGGAUUGAGCAUCA
# Target: T1, UNK ZnF1-3
# Assay: nsRBNS (natural sequence RNA bind-n-seq); RBNS binding buffer (assumed for nsRBNS): 25 mM Tris pH 7.5, 150 mM KCl, 3 mM MgCl2, 0.01% Triton X-100, 500 ug/ml BSA, 20 U/ml SUPERase-In, 4 C; UNK is unkempt and MSI1 is Musashi-1; names of the RNAs are library labels; protein concentration not given here; high values mean tight binding
row,Binder,binding signal [enrichment R]
1,B1,0.91
2,B2,1.49
3,B3,1.3
4,B4,0.873
5,B5,2.38
6,B6,0.663

# Reference: article PMC12136788
